Over roughly 33,000 sequences, “E-score (-0.5 to 0.5)” has its median near -0.013; the highest 2% begin near 0.3. The list shows a part of the results.
Each sequence was assayed against T1, Msn1 (UniProt P22148) (assay: PBM E-score (8-mer binding enrichment) (E-score (-0.5 to 0.5)); higher = stronger / more preferred TF binding; most listed sequences are background and not binding sites). Conditions: protein concentration: 200 nM; construct: GST-full length.
T1 sequence: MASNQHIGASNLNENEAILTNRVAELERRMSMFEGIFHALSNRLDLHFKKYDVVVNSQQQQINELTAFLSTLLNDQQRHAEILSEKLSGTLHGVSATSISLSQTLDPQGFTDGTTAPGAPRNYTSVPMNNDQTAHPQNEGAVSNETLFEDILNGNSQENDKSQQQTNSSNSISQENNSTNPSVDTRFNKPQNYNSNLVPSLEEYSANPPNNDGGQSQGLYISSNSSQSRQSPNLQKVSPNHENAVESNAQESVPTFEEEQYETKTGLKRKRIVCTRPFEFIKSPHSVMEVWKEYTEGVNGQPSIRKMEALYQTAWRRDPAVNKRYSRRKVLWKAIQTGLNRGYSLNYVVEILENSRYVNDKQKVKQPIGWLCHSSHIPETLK
In short: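 E-scores (a modified Wilcoxon-Mann-Whitney statistic) were assigned by the Universal PBM Analysis Suite to every ungapped eight-base word pooled with its reverse complement. The input came from universal all-10-mer Agilent arrays made double-stranded by primer extension and probed with GST-tagged yeast transcription factors at about 100-200 nM. Fluorescent anti-GST detected bound protein, and masliner normalised the scans.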

Row | Sequence | PBM E-score
1 | CACGGGCG | -0.102
2 | AGTTGCTA | 0.0852
3 | CAGACACA | 0.28
4 | ATCGGTAA | -0.0108
5 | AGGCACAG | -0.14
6 | AGCCTTGA | -0.0272
7 | CGAGGCAA | 0.172
8 | CGAATAAA | 0.309
9 | TCACTCGA | 0.144
10 | AACAGCGT | 0.0185
11 | AATCAGCT | 0.0707
12 | CGTGACGC | 0.178
13 | CAAACCCC | -0.177
14 | ATTAACTG | 0.105
15 | GATCGGAA | 0.123
16 | GATAATGC | -0.0121
17 | GAATAAGC | -0.016
18 | ACAAAGAA | 0.302
19 | CTGAGGCC | -0.161
20 | TGCTAGAA | 0.105
21 | GTCTCCTA | -0.257
22 | TCTGTAAA | 0.0523
23 | ACCAAGGT | -0.237
24 | ACCATCCT | -0.172
25 | CGCTGGGA | -0.0828

Row | Sequence | PBM E-score
26 | AAATATCG | 0.0709
27 | AGTGTTGG | -0.116
28 | TAGGAAGA | -0.123
29 | GAGGCGCC | -0.178
30 | CGTTGTTA | 0.202
31 | CGAGTACG | 0.00765
32 | CAACTACG | 0.032
33 | CACCCCAC | 0.0161
34 | CGCACGCA | -0.0526
35 | AGCTCGGA | -0.00872
36 | CAGGGACA | 0.47
37 | GTATTTCA | 0.0957
38 | TATGCGGA | 0.11
39 | ACGGATTC | 0.0302
40 | AGACGGGC | -0.0852
41 | AAGTCTCT | -0.0124
42 | CAATGTGA | 0.0388
43 | GAGCTCAC | -0.155
44 | ATCTACAG | 0.133
45 | GCTGGCCA | -0.0605
46 | ACAGACAA | 0.44
47 | CCTACTTA | -0.00398
48 | TGCTAAAA | 0.203
49 | CAATTCTG | 0.0159
50 | CGCGACCC | -0.13

Row | Sequence | PBM E-score
51 | TCGACAGA | -0.101
52 | AATGGTCA | 0.175
53 | GCTGAATA | 0.0327
54 | CACTATCC | -0.0232
55 | CCGATGGC | -0.102
56 | AAAAAAGC | -0.0879
57 | GATCGGCA | -0.0457
58 | GATTGCTA | -0.0824
59 | AGCCCTTG | -0.29
60 | TAGATCGA | 0.0565
61 | GGGAGAAC | -0.172
62 | ATTGTTTG | 0.202
63 | TCAGTTCA | -0.039
64 | ACTTGCAA | 0.0319
65 | AAGGTAAC | 0.0327
66 | ATGGGCAA | 0.0683
67 | TGGGCACA | -0.081
68 | GTGTGAAC | -0.0929
69 | AACCCTGT | -0.0817
70 | AGGATACT | -0.139
71 | ACGCATTA | 0.0828
72 | ACCAGCAT | -0.0593
73 | AGAATAGA | 0.139
74 | ATTTAGGG | 0.112
75 | CCGTCACC | -0.147

Row | Sequence | PBM E-score
76 | ACATCAGG | 0.153
77 | AACGTTCT | 0.0698
78 | ATGCCATA | 0.0177
79 | AGAGGGCT | -0.403
80 | ACGGAAGT | 0.0855
81 | CGGATGTC | 0.348
82 | ATGATCAC | 0.0677
83 | CACCGTGA | -0.0052
84 | ACGCCGCT | -0.0441
85 | AAACCTAC | -0.00141
86 | ACCCGCAG | -0.0799
87 | AACATATT | 0.132
88 | GGTCATTA | -0.0868
89 | AGAACCAT | 0.138
90 | GATCTGCA | -0.149
91 | TAATTTAA | 0.0937
92 | CATAGTCC | -0.0295
93 | TCTTCTAA | 0.113
94 | ACGCAAGC | -0.0684
95 | CTTCTCTA | -0.185
96 | AATACCTC | 0.123
97 | AGCAGTTA | -0.0695
98 | AAGCCGCC | -0.36
99 | AGAGTACC | -0.0733
100 | ACTAAGGG | -0.152

Row | Sequence | PBM E-score
101 | CTCAAGAA | -0.0174
102 | CCACTGCC | -0.114
103 | GGATGAAA | 0.00502
104 | CTTCTAGC | -0.157
105 | CATGGAAC | -0.0536
106 | CGGCGTAC | -0.0566
107 | AACGCAAA | 0.0497
108 | ATAACGCG | 0.0678
109 | GCATTAAA | 0.107
110 | CCGAAGGC | -0.182
111 | AGATGGCC | -0.182
112 | GATAGCGC | -0.273
113 | ACTACTCG | -0.00983
114 | AACACCAT | 0.0604
115 | ACAAAAAT | 0.372
116 | AGAAGTGA | -0.124
117 | ATCTTAGC | 0.149
118 | CGCTTGTA | 0.211
119 | GAGTCACC | -0.121
120 | ACCTAGGA | 0.218
121 | GCCGGCAA | 0.0765
122 | CTATTGTA | 0.195
123 | AAAGGGAG | -0.164
124 | ATATCTTA | 0.207
125 | ACACTGGG | -0.14

Row | Sequence | PBM E-score
126 | AACTTACT | -0.118
127 | GGAATGCC | -0.29
128 | ACGCCAGG | -0.198
129 | CAGCTAAC | -0.175
130 | CCGATGTC | 0.253
131 | TCATCTCA | 0.137
132 | AGCACCAG | -0.113
133 | TAACGAGA | -0.0296
134 | GCACCACA | -0.138
135 | CCGCCTCC | -0.331
136 | AAGTTCTA | -0.0143
137 | CGACCTTA | -0.0274
138 | AATAGGTA | 0.0149
139 | TTATTGAA | 0.0568
140 | CGGTGGCA | -0.187
141 | AAAACCAT | 0.0401
142 | AGATGTGC | 0.0731
143 | AGCTGTAC | -0.0374
144 | ATTCATGG | 0.00285
145 | GCCGCTAA | -0.0269
146 | CGCCAAGA | -0.142
147 | ATACATGA | 0.073
148 | ACCTGCAA | -0.237
149 | CAATTCTA | -0.0321
150 | CCCATGGA | -0.0444

Row | Sequence | PBM E-score
151 | CATTGAAA | 0.112
152 | CAGAGTTA | -0.13
153 | ACGATTGA | 0.101
154 | CCACCCGA | 0.0126
155 | CGACCGTA | -0.0583
156 | ACTGCAGG | -0.14
157 | GGGTTCCA | -0.254
158 | GTGCTATA | 0.0542
159 | CTTCAAGC | -0.231
160 | GAGCCCTC | -0.318
161 | AGGCATAT | -0.0112
162 | GGTATACA | 0.135
163 | CCGGCCCG | -0.183
164 | ATAGGAAC | 0.00013
165 | ATACCTTG | 0.0234
166 | AAACAGAG | -0.0424
167 | CGTACCCA | -0.0723
168 | AGAATCTC | -0.0882
169 | TACGTTAA | 0.0269
170 | ATTACGGC | 0.0654
171 | GTTGGAAA | 0.165
172 | GCTCATTA | -0.119
